Assay results published in PubChem BioAssay (NCATS).
“And” between values parts separate entries of the source, which are not always exact repeats. Equal values may be shown once. The shares of active, inactive and inconclusive entries below differ from those in the screen. Potencies of inconclusive entries are doubtful fits and often do not repeat. The source made the active and inactive calls. Unless noted, the call rests on the fitted dose curve; in most records, active means well fitted inhibition curve with a large enough effect; inconclusive means small, poorly fitted or top-dose-only effect; inactive means no such curve, though single readings can be large or run the other way.

Experiment: Primary qHTS for small molecule stabilizers of the endoplasmic reticulum resident proteome: Secreted ER Calcium Modulated Protein (SERCaMP) assay (AID 1508630); on activity change, negative = inhibition: on the % scale 0 is the no-effect control and ±100 the full control effect
Conditions: SH-SY5Y GLuc-SERCaMP (Gaussia luciferase released on ER calcium loss) secretion, thapsigargin, luminescence; activity change, negative = inhibition: at 38.4 µM (top of the series) unless noted
Summary of the method: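 GLuc-SERCaMP-expressing SH-SY5Y cells, pretreated 16 h with compound, are challenged with thapsigargin to empty ER calcium stores; after 4 h, coelenterazine is added directly to the medium and luminescence is imaged.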
Potency means the concentration at half of the fitted maximal effect; tags describe the fitted curve by direction and shape.

Row | Compound | Potency | activity change, negative = inhibition
1 | CCCCC/C=C\C/C=C\CCCCCCCC(=O)NC(C)c1ccccc1 (centres undefined) | inconclusive: 22.4 µM [inhibitor, single point] | 
2 | CCc1nn(CCCN2CCN(c3cccc(Cl)c3)CC2)c(=O)n1CCOc1ccccc1 | inconclusive: 17.8 µM [inhibitor, single point] and inconclusive: 11.2 µM [inhibitor, single point] | 
3 | COc1ccccc1OCC(O)CN1CCN(CC(=O)Nc2c(C)cccc2C)CC1 (centres undefined) | inactive | 
4 | O=C(O)CCC(=O)c1ccc(-c2ccccc2)cc1 | inconclusive: 3.55 µM [inhibitor, partial curve, poor fit] | 
5 | Cc1csc(NC(=O)c2sc3nc4c(c(C(F)(F)F)c3c2N)CCC4)n1 |  | inactive: 14.1%
6 | O=c1cc(-c2ccccc2)oc2ccccc12 | inconclusive: 7.94 µM [inhibitor, full curve, poor fit] | 
7 | O=C(CCN1CCN(CCO)CC1)N1c2ccccc2Sc2ccc(C(F)(F)F)cc21 |  | inactive: 34.9%
8 | COC(=O)C1=C(C)NC(C)=C(C(=O)OCC(C)C)C1c1ccccc1[N+](=O)[O-] (centres undefined) | inconclusive: 28.2 µM [inhibitor, single point] and inconclusive: 11.2 µM [inhibitor, single point] | 
9 | Cc1nc(-c2ccc(OCC(C)C)c(C#N)c2)sc1C(=O)O | inconclusive: 6.31 µM [inhibitor, partial curve, poor fit] | 
10 | O=C1Cc2cc(CCN3CCN(c4nsc5ccccc45)CC3)c(Cl)cc2N1 | inconclusive: 28.2 µM [inhibitor, single point] | 
11 | CC1Cc2ccccc2N1NC(=O)c1ccc(Cl)c(S(N)(=O)=O)c1 (centres undefined) | inconclusive: 29.8 µM [inhibitor, single point] | 
12 | Cc1cc(C(C)(C)C)c(O)c(C)c1CC1=NCCN1 | inactive | 
13 | c1ccc2c(c1)CCc1ccccc1N2 | inconclusive: 31.6 µM [inhibitor, partial curve, poor fit] | 
14 | COC(=O)Nc1nc2ccc(C(=O)C3CC3)cc2[nH]1 |  | inactive: 110%
15 | CN(C)c1ccc2nc3ccc(=[N+](C)C)cc-3sc2c1 | inconclusive: 31.6 µM [inhibitor, partial curve] | 
16 | COc1ccc(O)cc1 | inconclusive: 35.5 µM [inhibitor, partial curve, poor fit] | 
17 | OCc1cc(C(O)CNCCCCCCOCCCCc2ccccc2)ccc1O (centres undefined) | inconclusive: 22.4 µM [inhibitor, single point] | 
18 | CCCOC(=O)c1ccc(O)cc1 |  | inconclusive: -38.3% [inhibitor] [at 76.3 µM]
19 | CCN(CC)CCOc1ccc(/C(=C(\Cl)c2ccccc2)c2ccccc2)cc1 | inconclusive: 28.2 µM [inhibitor, single point] | 
20 | CO[C@H]1C[C@@H]2CC[C@@H](C)[C@@](O)(O2)C(=O)C(=O)N2CCCC[C@@H]2C(=O)O[C@H]([C@H](C)C[C@@H]2CC[C@H](OCCO)[C@H](OC)C2)CC(=O)[C@H](C)C=C(C)[C@@H](O)[C@@H](OC)C(=O)[C@H](C)C[C@H](C)C=CC=CC=C1C | inconclusive: 0.211 µM [inhibitor, full curve, poor fit] | 
21 | O=C(Nc1ccccc1)OCC(CN1CCCCC1)OC(=O)Nc1ccccc1 (centres undefined) | inconclusive: 22.4 µM [inhibitor, single point] | 
22 | COc1ccc(-c2coc3cc(O)cc(O)c3c2=O)cc1 | inconclusive: 0.0943 µM [inhibitor, full curve] | 
23 | CC(=O)Oc1ccccc1C(=O)Nc1ncc([N+](=O)[O-])s1 | inconclusive: 25.1 µM [inhibitor, single point] | 
24 | CCCc1nc2c(C)cc(-c3nc4ccccc4n3C)cc2n1Cc1ccc(-c2ccccc2C(=O)O)cc1 | inactive | 
25 | Cn1ccc2cc3c(cc21)CCN3C(=O)Nc1cccnc1 | inconclusive: 0.0211 µM [inhibitor, full curve, poor fit] | 
26 | NC(=O)C(c1ccccc1)(c1ccccc1)[C@@H]1CCN(CCc2ccc3c(c2)CCO3)C1 | inconclusive: 25.1 µM [inhibitor, single point] | 
27 | CC1=C(C)C(=O)C(C(CCCCCC(=O)O)c2ccccc2)=C(C)C1=O (centres undefined) | inactive | 
28 | COc1cc(OC)c(C(=O)CCCN2CCCC2)c(OC)c1 | inconclusive: 29.8 µM [inhibitor, single point] | 

Experiment: A High-Content qHTS Against Drug Library for the Identification of Small Molecules that Inhibit DYT1 Early Onset Primary Dystonia-Associated Cell Pathology (AID 1645839; calls by dose curve)
Conditions: HEK293 Flp-In EGFP-delE TorsinA, punctate imaging, 48 h; series mostly up to 46.1 µM; % pathology change, negative = correction: at the top concentration
Summary of the method: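 Readout: %pathology, the punctate EGFP-TorsinA distribution from imaging, as the primary channel and cell count as the toxicity counterscreen. HEK293 Flp-In cells expressing delE TorsinA were induced with tetracycline and treated with compound for 48 h.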

Row | Compound | Potency | % pathology change, negative = correction
29 | C#CC1(O)CC[C@H]2[C@@H]3CCC4=CCCC[C@@H]4[C@H]3CC[C@@]21C (some centres undefined) | inconclusive: 35.5 µM [inhibitor, single point] | 
30 | O=c1[nH]c2ccccc2n1CCCN1CCN(C(c2ccccc2)c2ccccc2)CC1 | inconclusive: 15.8 µM [inhibitor, single point] | 
31 | O=C(CCN1CCN2CCCC2C1)N1c2ccccc2Sc2ccc(Cl)cc21 (centres undefined) |  | inactive: 5.41% [at 19.1 µM]
32 | CCCCCCCCCCCCOCCOCCOCCOCCOCCOCCOCCOCCOCCO | inconclusive: 20 µM [inhibitor, partial curve, poor fit] | 
33 | Nc1ccc(S(=O)(=O)c2ccc(N)cc2)cc1 |  | inactive: -5.56%
34 | COC(=O)C1=C(C)NC(C)=C(C(=O)OCCN2CCN(C(c3ccccc3)c3ccccc3)CC2)C1c1cccc([N+](=O)[O-])c1 (centres undefined) | active: 8.91 µM | 
35 | Cc1cc2c(s1)Nc1ccccc1N=C2N1CCN(C)CC1 | inconclusive: 12.6 µM [inhibitor, partial curve, poor fit] | 
36 | [O-][n+]1ccccc1SSc1cccc[n+]1[O-] | active: 3.16 µM | 
37 | CCCCC/C=C\C/C=C\CCCCCCCC(=O)NC(C)c1ccccc1 (centres undefined) | inconclusive: 22.4 µM [inhibitor, single point] | 
38 | CCc1nn(CCCN2CCN(c3cccc(Cl)c3)CC2)c(=O)n1CCOc1ccccc1 | inconclusive: 35.5 µM [inhibitor, single point] | 
39 | COc1ccccc1OCC(O)CN1CCN(CC(=O)Nc2c(C)cccc2C)CC1 (centres undefined) |  | inactive: -3.5%
40 | O=C(O)CCC(=O)c1ccc(-c2ccccc2)cc1 |  | inactive: 1.19%
41 | O=c1cc(-c2ccccc2)oc2ccccc12 | inconclusive: 56.2 µM [inhibitor, single point] | 
42 | COC(=O)C1=C(C)NC(C)=C(C(=O)OCC(C)C)C1c1ccccc1[N+](=O)[O-] (centres undefined) | inconclusive: 35.5 µM [inhibitor, single point] | 
43 | Cc1nc(-c2ccc(OCC(C)C)c(C#N)c2)sc1C(=O)O | inconclusive: 10 µM [inhibitor, partial curve] | 
44 | O=C1Cc2cc(CCN3CCN(c4nsc5ccccc45)CC3)c(Cl)cc2N1 | inconclusive: 11.2 µM [inhibitor, partial curve] | 

Row | Compound | Potency | % pathology change, negative = correction
45 | CC1Cc2ccccc2N1NC(=O)c1ccc(Cl)c(S(N)(=O)=O)c1 (centres undefined) | inconclusive: 11.2 µM [inhibitor, partial curve, poor fit] | 
46 | c1ccc2c(c1)CCc1ccccc1N2 |  | inactive: -28.5%
47 | COC(=O)Nc1nc2ccc(C(=O)C3CC3)cc2[nH]1 | inconclusive: 2.51 µM [inhibitor, full curve, poor fit] | 
48 | CN(C)c1ccc2nc3ccc(=[N+](C)C)cc-3sc2c1 | inconclusive: 10 µM [inhibitor, partial curve, poor fit] | 
49 | COc1ccc(O)cc1 | inconclusive: 11.2 µM [inhibitor, partial curve, poor fit] | 
50 | OCc1cc(C(O)CNCCCCCCOCCCCc2ccccc2)ccc1O (centres undefined) | inconclusive: 12.6 µM [inhibitor, partial curve, poor fit] | 
51 | CCCOC(=O)c1ccc(O)cc1 | inconclusive: 22.4 µM [inhibitor, partial curve] | 
52 | CCN(CC)CCOc1ccc(/C(=C(\Cl)c2ccccc2)c2ccccc2)cc1 | inconclusive: 22.4 µM [inhibitor, single point] | 
53 | O=C(Nc1ccccc1)OCC(CN1CCCCC1)OC(=O)Nc1ccccc1 (centres undefined) | inconclusive: 35.5 µM [inhibitor, single point] | 
54 | CC(=O)Oc1ccccc1C(=O)Nc1ncc([N+](=O)[O-])s1 | inconclusive: 3.55 µM [inhibitor, full curve] | 
55 | CCCc1nc2c(C)cc(-c3nc4ccccc4n3C)cc2n1Cc1ccc(-c2ccccc2C(=O)O)cc1 | inconclusive: 35.5 µM [inhibitor, single point] | 
56 | Cn1ccc2cc3c(cc21)CCN3C(=O)Nc1cccnc1 | inconclusive: 14.1 µM [inhibitor, single point] | 
57 | NC(=O)C(c1ccccc1)(c1ccccc1)[C@@H]1CCN(CCc2ccc3c(c2)CCO3)C1 | inconclusive: 17.8 µM [inhibitor, single point] | 
58 | CC1=C(C)C(=O)C(C(CCCCCC(=O)O)c2ccccc2)=C(C)C1=O (centres undefined) | inconclusive: 35.5 µM [inhibitor, single point] | 
59 | COc1cc(OC)c(C(=O)CCCN2CCCC2)c(OC)c1 |  | inactive: 7.34%
